14 molecules from the supplement of paper PMC9513381 can be followed below.

Assay [1] has as its target SARS-CoV-2 Wuhan-Hu-1 spike pseudovirus. Put plainly: pseudovirus neutralization IC50; higher = weaker neutralization. On the procedure:
(§1)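 Single-round luciferase reporter pseudovirus mixed with antibody dilutions and put on 293T-ACE2 cells for 48 h; signal relative to no-antibody wells, four-parameter fit.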

For assay [2] the target is unchanged. The experiment in a line: pseudovirus neutralization IC90; higher = weaker neutralization. The procedure: as §1
In assay [3] the target is SARS-CoV-2 Delta (B.1.617.2) spike RBD. Put plainly: ELISA binding EC50; higher = weaker binding; ELISA of recombinant human antibody on coated antigen, from 10 µg/ml in fourfold dilutions; four-parameter fit. (In general: ELISA stands for enzyme-linked immunosorbent assay.)
In assay [4] the target is SARS-CoV-2 Omicron BA.1 spike protein. The description is as above.
In assay [5] the target is SARS-CoV-2 Wuhan-Hu-1 spike receptor-binding domain. The description is as above.

Positions count from the first letter of the chain named. Recombinant human monoclonal antibodies (heavy:light variable regions). ELISA EC50 on the named antigen, from 10 µg/ml down; IC50 / IC90 against spike pseudovirus on 293T-ACE2 cells, 48 h; lower = stronger. Calls: IC50 above 1,000 ng/ml = non-neutralizing; EC50 above 1,000 ng/ml = non-binder. The source prints 1000 for neutralization that was not reached; it is given as >1000 ng/ml. Only binders of the Wuhan-Hu-1 domain have neutralization values. Bounds are passed on as bounds.

B1: B1040 (protein)
chain 1: EVQLVESGGGLVQPGRSLRLSCAASGFTFDDYAMHWVRQAPGKGLEWVSGISWNSGTIGYADSVKGRFIISRDNAKNSLYLQMYSLRAEDTALYYCAKDVYMGKINLYGHEDYGMDVWGQGTTVTVS
chain 2: QSVLTQPPSVSGAPGQRVTISCTGSSSNVGASYDVHWYQQLPGTAPKLLIYGKDNRPSGVPDRFSGSKSGTSASLAITGLQAEDEADYYCQSFDSSLSGVLFGGGTKLTVL
Take B1: the “pseudovirus neutralization IC50” value in assay [1] amounted to 4.87 ng/mL. Moreover, the “pseudovirus neutralization IC90” value in assay [2] came to 796 ng/mL. For the same molecule, the “ELISA binding EC50” value in assay [3] stood at 76.3 ng/mL; in assay [4] it was 9.73 ng/mL; in assay [5] it was 2.08 ng/mL.

B2: B1047 (protein)
chain 1: QVQLVESGGGVVQPGRSLRLSCVASGFTFNNHAMHWVRQAPGKGLDWVAVISYDGSNKYYADSVKGRFTISRDNSKNTLYVQMNSLRAEDTAVYYCAREDYYDSSGSFDYWGQGTLVTVSS
chain 2: QSALTQPASVSGSPGQSITISCTGTSSDVGGYNYVSWYQQHPGKAPKLLTYDVSNRPSGVSNRFSGSKSGNTASLTISGLQAEDEADYYCSSYTNSATWVFGGGTKLTVL
As to B2, the “pseudovirus neutralization IC50” value in assay [1] amounted to 6.22 ng/mL. Moreover, the “pseudovirus neutralization IC90” value in assay [2] was 79.2 ng/mL. Further, the “ELISA binding EC50” value in assay [3] was 12.5 ng/mL; in assay [4], greater than 1000 ng/mL; in assay [5] it was 3.33 ng/mL.

B3: B1034 (protein)
chain 1: QVQLVQSGSEVKKPGASVKVSCKASGNTFITYYTHWVRQAPGQGLEWMGVIKPSDGYTNYAQKFQGRVTMTRDTSASTVYMELSSLTSDDTAVYYCARDSSIAARVVDWGQGTLVTVSS
chain 2: DIQMTQSPSSLSASVGDRVTITCQASQDIYNYLNWYQQKPGKAPKLLIFDAINLETGVPSRFSGSGSGTDFTLTISSLQPEDIATYYCQQHDNLPYSFGQGTKLEIK
In the case of B3, in assay [1], the “pseudovirus neutralization IC50” value is 4.35 ng/mL. Moreover, the “pseudovirus neutralization IC90” value in assay [2] is 42.2 ng/mL. In addition, the “ELISA binding EC50” value worked out at 304 ng/mL in assay [3], 2.81 ng/mL in assay [4] and 4.05 ng/mL in assay [5].

B4: B1053 (protein)
chain 1: QVQLVQSGAEVKQPGASVKVSCKASGYTFTRYYMHWVRQAPGQGLEWMGWINPNSGGTNYAQKFQGSVTMTRDTPISTAYMELSRLKSDDTAVYYCARSLFYYDRRGYPTPEDHFDYWGQGTLVTVSS
chain 2: QSVLTQPPSVSGAPGQRVTISCTGSSSNIGANYDVHWYQHLPGTAPKLLIYGNTNRPSGVPDRFSGSKSGTSASLAITGLQAEDEGDYYCQSYDSSPSGPNWVFGGGTKVTVL
With B4, the “pseudovirus neutralization IC50” value in assay [1] amounted to 34.1 ng/mL. In addition, the “pseudovirus neutralization IC90” value in assay [2] is 260 ng/mL. Besides, the “ELISA binding EC50” value in assay [3] stood at 8.16 ng/mL; in assay [4] it was 6.67 ng/mL; in assay [5], 2.75 ng/mL.

B5: B1042 (protein)
chain 1: QVQLVQSGAEVRKPGASVKVSCKASGNTFTGYYIHWVRQAPGQGLEWMGWINPNSGGTNYAQRFRGRVALTTDTPINIVHMELSGLRSDDTAVYYCAKDTGSSWSEAEYFDSWGQGTLVTVSS
chain 2: DIQMTQSPSSLSASVGDRVTITCRASQSISNYLNWYQQKPGKAPNLLIYAASSLQSGVPSRFSGSGSGTDFTLTISSLQPDDFATYYCQQSYSTPPITFGQGTRLEI
Consider B5, for which, in assay [1], the “pseudovirus neutralization IC50” value came to 18.6 ng/mL. The “pseudovirus neutralization IC90” value in assay [2] turned out to be 400 ng/mL. Besides, the entries for the “ELISA binding EC50” value in assay [3], in assay [4] and in assay [5] were 435 ng/mL, greater than 1000 ng/mL and 2.74 ng/mL, respectively.

B6: B1043 (protein)
chain 1: QVQLVESGGGVVQPGRSLRLSCAASGFIFSSYGMHWVRQAPGKGLEWVADISYHGSNKYYADSVKGRFNISRDNSKNTLFLQMNSLRPEDTALYFCAKDLGQGILHFVQWSLSRHGLDVWGQGTTVTVSS
chain 2: QSALTQPPSASGSPGQSVTISCTGTSSDVGGYNYVSWYQKYPGKAPKLIIYEVDKRPSGVPDRFSGSKSGNTASLTVSGLQAEDEADYYCSSSAVSVIFGGGTKLTVL
As for B6, the “pseudovirus neutralization IC50” value in assay [1] stood at 3.54 ng/mL. For the same molecule, in assay [2], the “pseudovirus neutralization IC90” value was 10.3 ng/mL. Also, the “ELISA binding EC50” value in assay [3] is greater than 1000 ng/mL; in assay [4], 16.1 ng/mL; in assay [5] it was 3.23 ng/mL.

B7: B1052 (protein)
chain 1: QVQLVQSGAEVKKPGASVKVSCKASGYIFTGYYMHWVRQAPGQGLEWMGWINPNSGATNYAQKFQGRVTMTRDTSISTVHMDLSRLRSEDTAVYYCARDQAFSMVSGSVDYWGQGTLVTVSP
chain 2: QSVLTQPASVSGSPGQSITISCTGASSDVGTYDLVSWYQHHPGKAPKLVIFEVTKRPSGVSNRFSGSKSGNTASLTISGLQAEDEADYYCCSYAGNSAYVFGTGTKVTA
Regarding B7, the “pseudovirus neutralization IC50” value in assay [1] came to 1.32 ng/mL. Also, the “pseudovirus neutralization IC90” value in assay [2] was 6.5 ng/mL. Also, the “ELISA binding EC50” value in assay [3] was 74.2 ng/mL; in assay [4], greater than 1000 ng/mL; in assay [5] it was 1.88 ng/mL.

B8: B1038 (protein)
chain 1: QVQLVQSGAEVKKPGASVKVSCKASGYTFTNYYMHWVRQAPGQGLEWLGMIKASGGTTHYAEKFQGRVTMTRDTSTNTVYVELSSLRSEDTAVYYCARDRLMGYYELWTAYGGMDVWGQGTTVTVSS
chain 2: SYVLTQPPSVSVAPGKTASVTCGGNDIGIKTVRWYQQKPGQAPVLVIYSDSDRPSGIPERFSGSNSGNTASLTINRVEAGDEADYYCQVWDSSSAWVFGGGTKLTV
Consider B8, for which the “pseudovirus neutralization IC50” value in assay [1] turned out to be 680 ng/mL. Moreover, the “pseudovirus neutralization IC90” value in assay [2] was greater than 1000 ng/mL. Moreover, the “ELISA binding EC50” value came out at 21.4 ng/mL in assay [3], 15.2 ng/mL in assay [4] and 2.19 ng/mL in assay [5].

B9: B1039 (protein)
chain 1: QVQLVESGGGVVQPGRSLRLSCTVSGFTFRHYGMHWVRQAPGKGLEWVAVILYDGSDKQYADSVKGRFTIARDNSKNTLYLQMNSLRAEDTAVYYCVKRRGSYCGGDCYSGEFDYWGQGTLVTVSS
chain 2: DIQMTQSPSSLSASVGDRVTITCQASQDISTYLNWFQQKPGKAPNLLISDASNLETGVPSRFSGSGSGTDFTFTISSLQPEDVATYYCQQYHNLPTFAGGTKVELK
In the case of B9, the “pseudovirus neutralization IC50” value in assay [1] is greater than 1000 ng/mL. Moreover, the “pseudovirus neutralization IC90” value in assay [2] is greater than 1000 ng/mL. For the same molecule, the results for the “ELISA binding EC50” value in assay [3], in assay [4] and in assay [5] were 5.51 ng/mL, 2.11 ng/mL and 3.24 ng/mL, respectively.

B10: B1044 (protein)
chain 1: QVQLVQSGAEVKKPGSSVKVSCKASGGTFSSYAISWVRQAPGQGLEWMGGIIPIFGTANYAQKFQGRVTITADESTSTAYMELSSLRSEDTAVYYCARALYYYDSSGRTRMEEYFDYWGQGTLVTVSS
chain 2: QSVLTQPPSVSGAPGQRVTISCTGSSSNIGAAYDVHWYQQLPGTAPKLLIYGNSNRPSGVPDRFSGSKSGTSASLAITGLQAEDEADYYCQSYDSSLSARYVFGTGTKVTVL
With B10, the “pseudovirus neutralization IC50” value in assay [1] was determined as 52.5 ng/mL. Further, the “pseudovirus neutralization IC90” value in assay [2] was greater than 1000 ng/mL. In addition, the results for the “ELISA binding EC50” value in assay [3], in assay [4] and in assay [5] were 388 ng/mL, 149 ng/mL and 4.8 ng/mL, respectively.

B11: B1051 (protein)
chain 1: EVQLVESGGGVVRPGGSLRLSCSASGFTFGEYGMSWFRQAPGKGPEWVSGITWNGGNPTYADSVKGRFMISRDNAKNSLYLQMNSLRAEDSASYHCARALCGDDCLASMYNWFDPWGQGTLVTVSS
chain 2: B10 chain 2 with A32G, L41F, G52N, S54N, Y93F, S96G, L97R, A99G, R100S, Y101E
With B11, in assay [1], the “pseudovirus neutralization IC50” value is 25.8 ng/mL. For the same molecule, the “pseudovirus neutralization IC90” value in assay [2] turned out to be 88.7 ng/mL. In addition, the “ELISA binding EC50” value in assay [3] was 6.81 ng/mL; in assay [4] it was 17.3 ng/mL; in assay [5] it was 2.21 ng/mL.

B12: B1035 (protein)
chain 1: QVQLVESGGGLVKPGGSLRLSCAASGFIFSNYYISWIRQSPGKGLEWLSYISGSGSTIYYADSVKGRFTISRDNAKNSLYLEMNSLRPEDTAVYYCARDGSLTGYIDYWGQGTLVTVSS
chain 2: SYELTQPPSVSVAPGQTARITCGGDDIGSKGVHWYQQKPGQAPVLVVYDDSDRPSGIPERFSGSNSGNTATLTISRVEVGDEADYYCQVWDSHANPHWVFGGGTKVTVL
Consider B12, for which the “pseudovirus neutralization IC50” value in assay [1] is greater than 1000 ng/mL. For the same molecule, in assay [2], the “pseudovirus neutralization IC90” value was greater than 1000 ng/mL. The “ELISA binding EC50” value in assay [3] turned out to be 7.96 ng/mL; in assay [4], 10.7 ng/mL; in assay [5], 4.55 ng/mL.

B13: B1033 (protein)
chain 1: EVQLVESGGGLVQPGRSLRLSCAASGFTFDDYALHWVRQAPGKGLEWVSGSSWNSATIGYADSVKGRFIISRDNAKNSLYLHMSSLRVEDTALYYCAKDSSGGDWPLCFDYWGQGILVTVSS
chain 2: EIVMTQSPATLSVSPGERATLSCRASQSVSSNLAWYQQKPGQAPRLLIYGASTRATGIPARFSGSGSGAEFTLTISSLQSEDFAVYYCQQYNNWRYTFGQGTKLEIK
Regarding B13, in assay [1], the “pseudovirus neutralization IC50” value is 9.32 ng/mL. Also, in assay [2], the “pseudovirus neutralization IC90” value is 616 ng/mL. In addition, the figures for the “ELISA binding EC50” value in assay [3], in assay [4] and in assay [5] were 317 ng/mL, 12.4 ng/mL and 2.97 ng/mL, respectively.

B14: B1041 (protein)
chain 1: QVQLVQSGAEVKKPGSSVKVSCKASGGTFSSYTVTWVRQAPGQGLEWMGGIIAALGAANYAQKFQGRVTFTADDSRSTVYMELSSLTYEDTAVYYCATSRGYSGYGANNWFDPWGQGSLVTVSS
chain 2: QSVLTQPPSVSGAPGQRVTISCTGSNSNIGAGYDVHWYQQLPGTAPRLLIHVNSNRPSGVPERFSGFKSGTSASLAITGLQAEDEAIYYCQSYDSSLTGSLFGGGTKLTVL
Consider B14, for which the “pseudovirus neutralization IC50” value in assay [1] was 85.2 ng/mL. For the same molecule, the “pseudovirus neutralization IC90” value in assay [2] is greater than 1000 ng/mL. The “ELISA binding EC50” value in assay [3] worked out at 15.8 ng/mL; in assay [4], 3.4 ng/mL; in assay [5], 3.44 ng/mL.
